Screen size: about 44,000 compounds; about 340 (0.77%) were called active. About 5% were inconclusive and are not listed. Calls come from the whole dose curve; as a rule, active = well fitted inhibition curve with a large enough effect; inconclusive = small, poorly fitted or top-dose-only effect; inactive = flat fitted curve, though single readings scatter. Some of the results follow.
assay: Acumen qHTS Assay for Inhibitors of the mTORC1 Signaling Pathway in MEF (Tsc2-/-, p53-/-) Cells: Sytravon; conditions: phospho-rpS6 immunofluorescence/PI, 24 h; series mostly up to 38.3 µM; activity change, negative = inhibition: at the top concentration;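 note: plate controls were DMSO for no effect and rapamycin for full effect; nearly all actives have a fitted effect of over 50% in size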
Summary of the method: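 Plate MEFs (Tsc2-/-, p53-/-, empty vector) in DMEM/10% FBS; after 24 h add compound, incubate 24 h at 37 degree Celsius; fix in PFA/TX-100, block, stain phospho-rpS6 and 10 uM PI; scan at 488 nm; report % positive cells.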

Activity change, negative = inhibition, inactive:
COc1ccccc1N1CCN(C(=O)CN2C(=O)COc3ccc(S(=O)(=O)N4CCCC4)cc32)CC1 -15%
CCc1cccc(NC(=O)CSc2nc3ccsc3c(=O)n2CC)c1 1.12%
CCn1c(/C(C#N)=C/c2ccccc2Cl)nc2ccccc21 -12.4%
CCc1nc(SCc2cc(=O)c3cc(C)ccc3[nH]2)n[nH]1 -0.858%
Cc1ccc(CNC(=O)Cn2c(=O)n(Cc3ccccc3)c(=O)c3sc4ccccc4c32)cc1 0.854%
Cc1ccc(CN(Cc2cccn2-c2nnc(N3CCCC3=O)s2)C(=O)Nc2ccccc2C(F)(F)F)cc1 -0.0028%
Cc1ccc(S(=O)(=O)CC(=O)Nc2sc3c(c2C(N)=O)CCCC3)cc1 -11.5%
CCc1ccc(NC(=O)Cc2c(C(=O)O)c(C)cn2C)cc1 -9.62%
CC(C)CCNC(=O)Nc1ccc2c(c1)N(Cc1ccccc1)C(=O)c1ccccc1S2 -6.78%
COc1cc(OC)c(NC(=O)c2cc(C)nc3c2c(C)nn3-c2ccc(C)cc2)cc1Cl 2.22%
Cc1ccc(NC(=O)CCN2CCN(CCO)CC2)cc1C 3.49%
COc1ccc(CCNC(=O)c2ccc3c(c2)N(Cc2ccc(Cl)cc2)C(=O)c2ccccc2S3)cc1OC 5.15%
CCN(Cc1nc(-c2ccc(OC)cc2)oc1C)S(=O)(=O)c1ccc(C)cc1 5.32%
Cc1ccc(NC(=O)CN2CCSc3ccc(S(=O)(=O)N4CCCC4)cc32)cc1 -9.48%
Cc1c(CCNC(=O)c2ccco2)sc2nc(-c3ccc(F)cc3)nn12 -10.2%
CC(=O)c1ccc(NC(=O)Cn2c(-n3nc(C)cc3C)nc(C)c(C)c2=O)cc1 2.77%
CCOC(=O)Cc1ccc(NC(=O)N2CCC(CN3CCCCCC3)CC2)cc1 -8.21%
CCOc1ccccc1Nc1nnc(-c2cc3cc(OC)ccc3oc2=O)s1 -1.78%
CCN(CC)c1cc2c(cc1F)c(=O)c(S(=O)(=O)c1ccc(OC)cc1)cn2Cc1ccccc1 -9.68%
CCCCN(CC)C(=O)c1cc2c(=O)n3cccc(C)c3nc2n1C 8.24%
CCc1ccc(Oc2c(C(F)(F)F)oc3c(CN4CCC(C)CC4)c(O)ccc3c2=O)cc1 12.8%
CCCCN(CC)CCCNC(=O)Cn1ncc2c3ccccc3n(C)c2c1=O -8.03%
CCOc1ccc(S(=O)(=O)N(CC(=O)NCc2ccccc2OC)c2ccccc2)cc1 -2.79%
COc1cccc(CSc2nc3n(n2)C(CC(C)C)C(C(=O)Nc2ccccc2OC)=C(C)N3)c1 (stereo unspecified) -3.04%
COc1ccc(C(=O)N2CCC(C(=O)Nc3ccc(Cl)cc3)CC2)cc1 1.1%
Cc1cc(=O)n2nc(N(C)CC(=O)NCc3cccc(Br)c3)sc2n1 -0.938%
Cc1nc2ccc(S(=O)(=O)N(CC(=O)Nc3cccc(F)c3)Cc3ccccc3)cc2s1 0.56%
CC(C)CCn1c(=O)c2sccc2n2c(CCCC(=O)NCCc3ccccc3)nnc12 2.6%
O=C1CC(c2ccccc2)c2c(n3ncnc3[nH]c2=O)N1 (stereo unspecified) -1.08%
CCc1cccc(NC(=O)Cn2c(=O)n(CC(=O)NCCc3ccccc3)c(=O)c3ccccc32)c1 3.92%
COc1ccccc1C(=O)N1CCC(c2noc(-c3ccc(S(=O)(=O)N4CCCC4)cc3)n2)CC1 -8.59%
COc1cccc(CNC(=O)c2oc3c(c2C)-c2nn(Cc4cccc(Cl)c4)cc2CC3)c1OC 1.56%
O=C(NCCc1ccc(Cl)cc1)c1ccc(CS(=O)Cc2ccccc2Cl)o1 (stereo unspecified) -0.356%
COc1ccc(NC(=O)Cn2c(SCc3ccc(F)cc3)nc3cccnc32)cc1OC -17.9%
Cc1cccc(NC(=O)C2CCN(c3nc4ccccc4[nH]3)CC2)c1C 12.9%
Cc1ccc(C)c(CNC(=O)CCn2cccn2)c1 -14%
O=C(Nc1ccc2nc(SCC(=O)N3CCCC3)sc2c1)c1cccc(Br)c1 -7.81%
Cc1cc(C)cc(N2C(=O)CSC23C(=O)N(CC(=O)Nc2ccc(F)cc2F)c2ccccc23)c1 (stereo unspecified) 4.37%
CCCCc1nn2c(=O)cc(COC(=O)c3ccc(NC(=O)CCc4ccccc4)cc3)nc2s1 0%
CCOCCCN1C(=O)c2[nH]nc(-c3ccccc3O)c2C1c1ccc(CC)cc1 (stereo unspecified) -19.7%
CCOC(=O)c1oc2c(c1C)-c1nn(Cc3c(F)cccc3Cl)cc1CC2 -0.416%
CCCCN(C)S(=O)(=O)c1ccc(C(=O)Nc2sc3c(c2C(N)=O)CC(C)(C)NC3(C)C)cc1 0.0542%
CCCc1ccc(-c2ccc(C(=O)Oc3ccc(OCC)cc3)cc2)nc1 -9.38%
Cc1ccc(CCNC(=O)CS(=O)Cc2nc(-c3ccccc3C)oc2C)cc1 (stereo unspecified) -4.93%
Cc1c(CCC(=O)NCc2cccc(Cl)c2)c(=O)oc2c(C)c(O)ccc12 0.491%
CCN(Cc1ccccc1)C(=O)Cn1c(=O)n(-c2ccc(Cl)cc2)c(=O)c2c(C)c(C(=O)N(C)C)sc21 0.562%
O=C(Cn1cnc2c(oc3ccccc32)c1=O)Nc1ccc(F)cc1F -10.1%
O=C(CSc1nc2c(oc3ccccc32)c(=O)n1Cc1ccco1)Nc1ccccc1Cl -0.283%
O=C(Cn1ncc2c3ccccc3n(Cc3cccc(Cl)c3)c2c1=O)NCc1cccs1 -2.18%
CCc1ccc(OCc2nc(-c3ccc(OC)cc3)no2)c(Br)c1 3.77%
O=C(Nc1nc2ccccc2s1)c1ccc(S(=O)(=O)N2CCCC2)cc1 -0.48%
O=S(=O)(c1ccc2nc(NCc3ccccc3Cl)ccc2c1)N1CCCCC1 -15.7%
CCOc1ccc(C2C(=O)N(C3CCCCCC3)CC(=O)N2CCc2ccc(OC)c(OC)c2)cc1OC (stereo unspecified) 11.4%
CC(CNC(=O)c1ccc(CSc2nc3ccncc3n2Cc2ccccc2)cc1)c1ccccc1 (stereo unspecified) -14.7%
COc1ccc(CNC(=O)CSc2nc(-c3ccc(OC)c(OC)c3)cc(C(F)(F)F)n2)cc1 -26%
COc1cc(Cl)c(NS(=O)(=O)c2ccc(-c3cnc(C4CC4)o3)cc2)c(OC)c1 -29.3%
CCCC12CN3CC(CCC)(CN(C1)C3c1ccccc1)C2=O (stereo unspecified) 6.77%
CCOC(=O)c1cc(S(=O)(=O)N2CCN(c3ccc(C(C)=O)cc3)CC2)[nH]n1 3.93%
CCOC(=O)c1ccc(NC(=O)NCCOCCn2c(=O)oc3ccccc32)cc1 -0.847%
CCS(=O)(=O)c1nc(S(=O)(=O)c2ccc(C)cc2)c(NCCCOC)s1 -15.9%
CCn1c(CNC(=O)c2ccc(OC)cc2)nnc1SCC(=O)Nc1ccc(C)cc1 2.28%
Cc1cc2oc3c(c(=O)c2cc1C)C1(C(=O)N(C)c2ccccc21)N(CCO)C3=O (stereo unspecified) 6.58%
COc1ccc(N2CC(NC(=O)c3ccco3)CC2=O)cc1 (stereo unspecified) -5.32%
Nc1cc(=O)nc(SCC(=O)Nc2ccc(F)cc2)n1CCc1ccccc1 -14.3%
COc1ccccc1NC(=O)C1CCN(C(=O)c2sc3nc[nH]c(=O)c3c2C)CC1 -9.86%
CC(=O)c1ccc(NC(=O)c2ccc(-c3ccc(Cl)cc3)o2)cc1 -4.14%
Cc1cccc(CCNC(=O)CCc2c(C)nc3c4c(C)cc(C)nc4nn3c2C)c1 -11.9%
COc1ccc(CNC(=O)Cn2ncc3c([nH]c4ccccc43)c2=O)cc1 -12.6%
Cc1nn(-c2ccc(N3CCCC3)nn2)c(C)c1CCC(=O)Nc1ccc(F)cc1F 0.936%
CCc1cccc(C)c1NC(=O)Cn1c(=O)cc(C)c2c(C)nn(-c3cccc(F)c3)c21 -5.13%
COc1ccccc1N1CCN(c2cc(C)nc3nc(-c4ccc(C)cc4)nn23)CC1 3.71%
O=C(NCc1ccc(F)cc1)c1ccc(Nc2nc3ccccc3n3nnnc23)cc1 -6.67%
Cc1c(C(=O)Nc2ccccc2F)sc2ncnc(N(C)C3CCCCC3)c12 0.517%
COc1ccc(C)cc1NC(=O)c1ccc2c(SCC(=O)O)c3c(nc2c1)CCCC3 1.39%
CCOc1ccc(NC(=O)C2CC(=O)N(c3ccc(C(C)C)cc3)C2)cc1 (stereo unspecified) -17.5%
COc1ccc(NC(=O)c2sc3nc[nH]c(=O)c3c2C)cc1Cl -2.8%
Cn1c(=O)n(-c2ccc3c(c2)OCO3)c2nc(-c3ccccc3)nc(C(N)=O)c21 0.57%
CCOC(=O)CC(NC(=O)Cn1nnc(-c2ccc(C(F)(F)F)cc2)n1)c1ccc(OC)cc1 (stereo unspecified) 1.08%
Cc1cc(C)cc(NC(=O)CSc2cc(C)[nH]c(=O)n2)c1 -2.93%
COc1cccc2c1cc1c(=O)n(CC(=O)N3CCN(c4cccc(C)c4)C(C)C3)nc(C)n12 (stereo unspecified) -10.1%
CCCC1=Nc2cc(C(=O)NC3CCCC3)ccc2Sc2ccc(C)cc21 -9.92%
COc1cc(CN(C(=O)COc2ccc(C)cc2)c2ccccn2)cc(OC)c1OC -15.8%
COc1ccc(C(=O)N2CCN(Cc3cc(=O)n4nc(-c5ccccc5C)sc4n3)CC2)cc1OC 3.01%
Cc1cccc(NC(=O)C2CCN(S(=O)(=O)c3ccc(F)cc3)CC2)c1C 1.99%
CCCCNC(=O)c1nn(-c2ccc(CC)cc2)nc1CO 2.45%
CCCn1c(=O)sc2cc(NC(=O)COc3ccc(Cl)cc3)ccc21 -6.47%
CC1CCC(NC(=O)c2ccc3c(c2)N(Cc2cccc(Cl)c2)C(=O)c2ccccc2S3(=O)=O)CC1 (stereo unspecified) 0.208%
CCc1ccccc1NC(=O)Cn1nnc(C(=O)NCc2ccccc2Cl)c1N -5.32%
COc1cccc(CN(C(=O)c2oc3cc(C)ccc3c2C)C2CCS(=O)(=O)C2)c1 (stereo unspecified) -2.71%
CCOC(=O)c1ccc(NS(=O)(=O)c2ccc3c(c2)n(C)c(=O)n3C)cc1 -2.55%
COc1ccc(-c2nc3c4ccccc4n(CC(=O)N4CCN(c5ccccc5OC)CC4)c(=O)n3n2)cc1 4.62%
CCN(CC)CCCNC(=O)CN1C(=O)CCn2nc(-c3cn(C)c4ccccc34)cc21 2.78%
COc1ccc(CCNC(=O)c2ccc3c(c2)c(C)c(C)n3Cc2ccc(F)cc2)c(OC)c1OC 0.843%
COc1ccc(-c2nc(CSCC(=O)N3CCN(c4cccc(C)c4C)CC3)c(C)o2)cc1OC -10.6%
COc1cccc(-n2c(=O)c3c4c(sc3n(Cc3ccc(C)cc3)c2=O)CCCC4)c1 -8.09%
Cc1ccc2nc(-c3ccccc3F)c(Nc3ccc(Cl)cc3)n2c1 -5.01%
